# From PMC6919601, “Identification of Plasmodium dipeptidyl aminopeptidase allosteric inhibitors by high throughput screening” (PLoS ONE, 2019)
# In all, about 110,000 compounds went through this assay and about 230 (0.21%) showed an effect of 50% or more. This is one part of the list.
# Target: DPAP1 (Plasmodium falciparum, UniProt Q8IIJ9)
# Assay: primary screen, percent inhibition; read by cleavage of a fluorogenic dipeptide substrate; higher = more effect of the substance
# Parameters: species or system P. falciparum D10 trophozoite lysates; single well
# 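Further: 30 min substrate incubation versus DMSO and 10 µM JCP410 controls.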
# Sequence of DPAP1 (Q8IIJ9 whole entry, looked up): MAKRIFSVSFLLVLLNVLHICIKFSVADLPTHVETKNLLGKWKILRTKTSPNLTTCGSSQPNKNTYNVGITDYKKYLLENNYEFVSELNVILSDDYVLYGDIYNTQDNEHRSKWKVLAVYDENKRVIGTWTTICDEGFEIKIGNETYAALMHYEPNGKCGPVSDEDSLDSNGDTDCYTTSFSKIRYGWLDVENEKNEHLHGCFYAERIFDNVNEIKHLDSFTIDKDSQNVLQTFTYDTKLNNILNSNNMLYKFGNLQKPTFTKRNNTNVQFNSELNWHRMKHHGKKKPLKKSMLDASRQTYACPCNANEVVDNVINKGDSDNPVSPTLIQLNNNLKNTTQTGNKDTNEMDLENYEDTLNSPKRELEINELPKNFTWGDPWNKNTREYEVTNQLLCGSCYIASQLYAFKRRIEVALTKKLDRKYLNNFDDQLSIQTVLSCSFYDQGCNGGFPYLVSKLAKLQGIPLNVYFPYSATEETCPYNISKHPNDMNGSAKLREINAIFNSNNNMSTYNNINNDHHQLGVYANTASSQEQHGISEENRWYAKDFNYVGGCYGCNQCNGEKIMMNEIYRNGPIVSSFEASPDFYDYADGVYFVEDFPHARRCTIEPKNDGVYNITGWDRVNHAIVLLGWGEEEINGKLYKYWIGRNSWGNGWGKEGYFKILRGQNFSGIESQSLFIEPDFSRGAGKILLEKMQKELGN
row,SMILES,% Inhibition @ 10 uM [%]
1,CCC(C)N(CCNC(=O)Nc1cn(CC(C)C)c(=O)c2ccccc12)Cc1ccco1 (stereo not drawn),-4.02
2,COC(=O)C1=CN(Cc2ccc(C)cc2)C=C(C(=O)OC)C1c1cc(F)ccc1F,3.47
3,Cc1nnc(SCC(=O)NCCC2=CCCCC2)c2nn(-c3ccccc3)c(C)c12,2.08
4,Cc1cc(-c2ccc(S(=O)(=O)N3CCOCC3)s2)on1,-0.342
5,CCOc1ccc(NC(=O)C(c2ccccc2)c2ccccc2)cc1,-1.92
6,O=C(NC1CCCCC1)c1ccc2snnc2c1,-5.36
7,CCOC(=O)N1CCN(C(=O)CN(C)S(=O)(=O)c2ccc(Cl)cc2)CC1,-3.63
8,Cc1cc(C)c(S(=O)(=O)Nc2ccccc2F)c(C)c1,-0.351
9,CCOC(=O)C1CCN(Cc2cccc(Br)c2)CC1,-1.86
10,Cc1ccc(OCC(=O)Nc2cccc(NC(=O)COc3ccc(C)cc3)c2)cc1,-0.95
11,COc1ccc(C2(C)CC(=O)NC2=O)cc1 (stereo not drawn),-0.807
12,CC1C(=O)C(C)C(c2ccccc2F)NC1c1ccccc1F (stereo not drawn),-3.21
13,COCCCNC(=O)Cn1nc(-c2ccccc2)ccc1=O,-1.21
14,COC(=O)c1sccc1NC(=O)c1cc2c(=O)oc3ccc(C)cc3c2s1,-3.37
15,O=CN1CCN(Cc2ccc(Cl)c(Cl)c2)CC1,2.91
16,Cc1ccc(CNC(=O)N(Cc2ccc3c(c2)OCO3)C2CCN(Cc3ccccc3)CC2)cc1,-0.613
17,O=C(O)C1CC=CCC1C(=O)NCCCc1ccccc1 (stereo not drawn),1.17
18,COc1ccc(Cl)cc1-n1nnc(-c2nc(-c3ccccc3)no2)c1N,-4.17
19,Cc1cccc(C(=O)Nc2ccc(Cl)c(Cl)c2)c1,-6.82
20,Cc1cc(OCCCOc2ccc(Cl)cc2/C=C2\NC(=O)NC2=O)cc(C)c1Cl,-3.75
21,COc1ccc2ccccc2c1CN1CCN(C(=O)c2ccco2)CC1,3.95
22,CCc1c(C#N)c(N)nc(SCC(=O)OCc2ccccc2)c1C#N,1.44
23,COc1ccc(C2C(C#N)=C(N)OC3=C2C(=O)CC(c2ccccc2)C3)cc1C (stereo not drawn),5.08
24,COc1cccc(S(=O)(=O)NCC(=O)N2CC(C)CC(C)C2)c1 (stereo not drawn),0.755
25,COc1cc(C2CC(=O)N3CN(Cc4ccccc4)CSC3=C2C#N)cc(Br)c1O (stereo not drawn),57
26,C/C(=N\CCO)C1=C(O)C(=O)N(CCO)C1c1ccc(Br)cc1 (stereo not drawn),0.279

row,SMILES,% Inhibition @ 10 uM [%]
1,O=S(=O)(c1cccc(S(=O)(=O)N2CCCCC2)c1)N1CCCCC1,1.96
2,O=C(c1ccn(C(=O)NC2CCCCC2)n1)N1CCOCC1,-5.62
3,Cc1ccc(C(=O)O)cc1-c1ccc(/C=C2/NC(=O)N(Cc3ccccc3)C2=O)o1,11.8
4,O=C(Nc1ccc(Cl)cc1C(=O)Nc1ccccc1C(=O)NCc1ccco1)c1ccco1,2.65
5,CN1CCCCc2c1nc1ccccc1c2O,-0.902
6,Cc1nn(-c2ccccc2)c2c1C(c1ccc(Br)cc1)SCC(=O)N2 (stereo not drawn),-1.33
7,COc1ccc(-n2nc3c(c2NC(=O)c2ccc(C)cc2)CSC3)cc1,1.39
8,Cc1nc2c(ccc3nsnc32)[nH]1,-3.03
9,CCCCNC(=O)C1c2ccccc2C(=O)N2CCc3cc(OCC)c(OCC)cc3C12 (stereo not drawn),1.3
10,Cc1ccc(S(=O)(=O)NCc2nnc(NC(=O)c3ccc(Br)cc3)s2)cc1,-7.3
11,N#CCc1ccc(NC(=O)COc2ccc(Cl)cc2Cl)cc1,-0.891
12,COc1ccc2nc(O)c(NC(N)=S)nc2c1,1.89
13,OCCN1CCN(CC2CC3C=CC2C3)CC1 (stereo not drawn),2.91
14,Brc1ccccc1CN1CCN(Cc2c[nH]c3ccccc23)CC1,-6.57
15,COCCN1C(=O)c2oc3cc(C)c(C)cc3c(=O)c2C1c1ccccc1F (stereo not drawn),3.93
16,CCOCCCNC(=O)c1ccc(CS(=O)Cc2ccc(C)cc2)o1 (stereo not drawn),0.401
17,COc1ccc(C2=N/C(=C\c3coc4ccccc4c3=O)C(=O)O2)cc1,-3.44
18,C#CCOc1c(Br)cc(C2C(C#N)=C(N)OC3=C2C(=O)CC(C)(C)C3)cc1OCC (stereo not drawn),3.62
19,COc1ccccc1Oc1cc(-n2nc(SC)c(C#N)c2N)ncn1,-3.16
20,Cn1nc(C(=O)NC2CCN(Cc3ccccc3)CC2)c2c1-c1ccccc1SC2,-3.51
21,O=C(O)c1ccccc1-n1c(=O)c2cc3c(=O)n(-c4ccccc4C(=O)O)c(=O)c3cc2c1=O,-1.42
22,CCCN(CCC)C(=O)CSc1nc2nnc(C)c-2c(N)n1-c1ccc(C)c(C)c1,0.992
23,COc1cccc(C(=O)c2ccc(O)cc2)c1,-0.215
24,COc1cccc(C2CC(c3c(O)cc(C)oc3=O)=Nc3ccccc3S2)c1O (stereo not drawn),-3.62
25,Cc1cccc2c1C(C)(c1ccccc1)CC(C)(C)N2C(=O)Cc1ccccc1 (stereo not drawn),0.467
